Data taken from PubChem BioAssay AID485341 (National Center for Advancing Translational Sciences (NCATS), 2010).
Out of some 330,000 compounds screened, about 1,700 (0.52%) were called active. This list was built around the results that the source calls inconclusive (neither active nor inactive); the mix of calls is not that of the screen. Calls follow the shape of the dose curve; as a rule, active = well fitted inhibition curve with a large enough effect; inconclusive = small, poorly fitted or top-dose-only effect; inactive = no such curve, though single readings can be large or run the other way. A potency beside an inconclusive call is a rough fit, not a confirmed value.

Biological target: Beta-lactamase (Escherichia coli (strain K12)) (UniProt P00811)
Experiment: qHTS Inhibitors of AmpC Beta-Lactamase (assay without detergent); also: nearly all actives have a fitted effect of over 20% in size;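 as to activity change, negative = inhibition: plate controls were no compound for no effect and no enzyme for full effect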
Conditions: AmpC nitrocefin hydrolysis, absorbance 480 nm, 0.0001% Triton; activity change, negative = inhibition: at 57.1 µM (top of the series) unless noted
Summary of the method: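 20 mM phosphate pH 7.0 + 0.01% (detergent screen) or 0.0001% Triton X-100; 5.3 nM AmpC reagent; cpd preinc 15 min RT; nitrocefin (800 uM stock) to start; A480 q20 s × 4 min; Activity was normalised to no-enzyme and no-compound control wells.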
Potency is read from the fitted curve at half-maximal effect; tags tell the direction and shape of the fitted curve.

Chain of UniProt P00811 (P00811 whole entry, looked up): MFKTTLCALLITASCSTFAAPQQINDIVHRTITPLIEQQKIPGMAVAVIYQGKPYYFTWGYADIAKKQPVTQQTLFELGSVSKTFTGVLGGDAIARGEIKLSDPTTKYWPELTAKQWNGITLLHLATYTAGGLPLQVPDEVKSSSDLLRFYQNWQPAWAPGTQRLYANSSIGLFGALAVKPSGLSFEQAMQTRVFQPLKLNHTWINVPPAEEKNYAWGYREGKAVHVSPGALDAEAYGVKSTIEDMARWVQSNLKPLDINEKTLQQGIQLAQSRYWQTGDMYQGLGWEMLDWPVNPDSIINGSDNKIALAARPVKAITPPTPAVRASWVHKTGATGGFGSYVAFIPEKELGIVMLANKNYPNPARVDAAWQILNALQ

Row | Structure (SMILES) | Potency | activity change, negative = inhibition
1 | O=C(Nc1cccc(NC(=O)c2cccs2)c1)c1ccc2c(c1)OCCO2 | active: 7.08 µM | 
2 | CC(=O)N1CCc2cc(S(=O)(=O)NC(C(=O)NCc3ccccc3)C(C)C)ccc21 (configuration not stated) | inconclusive: 8.91 µM [inhibitor, single point] | 
3 | COc1ccc(CNC(=O)Cn2cc3c(n2)CCCCC3)cc1 | active: 7.08 µM | 
4 | O=c1c(C(c2ccccc2)c2c(O)sc3ccccc3c2=O)c(O)sc2ccccc12 | active: 15.8 µM | 
5 | Cc1noc(/C=C/N(C)C)c1S(=O)(=O)N1CCc2ccccc21 | inconclusive: 0.316 µM [inhibitor, full curve, poor fit] | 
6 | CCC1(c2ccc(F)cc2)NC(=O)N(CC(=O)N(C)C2CCS(=O)(=O)C2)C1=O (configuration not stated) | inconclusive: 39.8 µM [inhibitor, single point] | 
7 | Nc1cc(OC(=O)c2c(F)cccc2Cl)nn1S(=O)(=O)c1ccccc1 | inconclusive: 17.8 µM [inhibitor, partial curve] | 
8 | Cc1ccc(/C=N/NC(=O)c2cc3ccccc3cc2O)o1 | inconclusive: 15.8 µM [inhibitor, partial curve] | 
9 | COc1ccc(CNC(=O)C(c2ccncc2)N(C(=O)Cc2cccs2)c2ccccc2C)cc1 (configuration not stated) | inconclusive: 2.51 µM [inhibitor, partial curve, poor fit] | 
10 | CC(=O)Nc1ccc(S(=O)(=O)Nc2nccc(/C=C/c3ccc(Cl)cc3)n2)cc1 | inactive | 
11 | CC1Sc2ccc(C(=O)Nc3ccc(S(=O)(=O)N(C)C)cc3)cc2NC1=O (configuration not stated) | inconclusive: 35.5 µM [inhibitor, single point] | 
12 | O=C(NNC(=O)C1CCN(Cc2ccccc2)CC1)c1cccc(Cl)c1 | inconclusive: 0.141 µM [inhibitor, full curve, poor fit] | 
13 | CCOC(=O)c1c(-c2ccc(-c3ccccc3)cc2)csc1NC(=O)CNCCN(C)C | inactive | 
14 | O=C1c2ccccc2NC(c2ccc(-c3cccc([N+](=O)[O-])c3)o2)N1O (configuration not stated) | inconclusive: 12.6 µM [inhibitor, partial curve] | 
15 | COc1cc([N+](=O)[O-])cc(/C=N/NC(=O)C(C)Nc2ccccc2C)c1O (configuration not stated) | inactive | 
16 | N=C1/C(=C/c2cccn2CCOc2ccccc2)C(=O)N=C2SC=C(c3ccccc3)N12 | inconclusive: 3.16 µM [inhibitor, full curve, poor fit] | 
17 | COc1ccc(CC(=O)Nc2cccc(/C(C)=N/NC(=O)c3cccc([N+](=O)[O-])c3)c2)cc1 | inconclusive: 25.1 µM [inhibitor, partial curve] | 
18 | Cc1cc(N2C(=O)C(O)=C(C(=O)c3cc4ccccc4o3)C2c2ccc(Br)cc2)no1 (configuration not stated) | inconclusive: 10 µM [inhibitor, partial curve] | 
19 | O=C(O)Cc1ccc(C(=O)CSc2ccccc2)s1 | inconclusive: 31.6 µM [inhibitor, single point] | 
20 | CCC(SC1=NCCS1)C(=O)Nc1nnc(-c2ccccc2OC)s1 (configuration not stated) | active: 10 µM | 
21 | CC(C)(Oc1ccc(Cl)cc1)C(=O)Nc1c2c(nn1C(C)(C)C)CS(=O)(=O)C2 | inconclusive: 31.6 µM [inhibitor, single point] | 
22 | Cc1ccc(C(=O)N2CCN(c3cc4c(cc3[N+](=O)[O-])n(C)c(=O)n4C)CC2)cc1 | inactive | 
23 | CCN(Cc1ccccc1)S(=O)(=O)c1c(C)n(C)c(=O)n(C)c1=O | inconclusive: 28.2 µM [inhibitor, single point] | 

Row | Structure (SMILES) | Potency | activity change, negative = inhibition
24 | CC1=C(C)CC2C(=O)N(c3cccc4ccccc34)C(=O)C2C1 (configuration not stated) | inconclusive: 10 µM [inhibitor, full curve, poor fit] | 
25 | COc1cccc(C(=O)N(C)c2nnc(-c3ccncc3)s2)c1 | inactive | 
26 | Cc1nc(-c2ccccc2)sc1C(=O)CSc1ccc(F)cc1 | inconclusive: 6.31 µM [inhibitor, partial curve, poor fit] | 
27 | Cc1cc(Cn2nnnc2-c2ccncc2)cc(C)c1O | inactive | 
28 | CN(C)c1ccc(-c2ccncc2)cc1 | inactive | 
29 | COc1ccc(S(=O)(=O)N2CCC(C(=O)Nc3cc(Cl)ccc3N3CCOCC3)CC2)cc1OC | inconclusive: 39.8 µM [inhibitor, single point] | 
30 | O=C(Nc1ccccc1Cl)N1CCN(c2ccc3nnc(-c4ccc(F)cc4)n3n2)CC1 | inactive | 
31 | O=C(CN(C(=O)Cn1nnc(-c2ccccc2F)n1)c1cccc2c1CCCC2)NCc1ccccc1 | inconclusive: 0.316 µM [inhibitor, full curve, poor fit] | 
32 | COc1ccc(/C=N/NC(=O)c2ccc(COc3ccccc3Cl)o2)c(OC)c1C | inconclusive: 3.98 µM [inhibitor, full curve, poor fit] | 
33 | CC(C)Cc1ccc(C(C)NC(=O)Cc2ccc(S(=O)(=O)N3CCOCC3)s2)cc1 (configuration not stated) | inconclusive: 39.8 µM [inhibitor, single point] | 
34 | COc1ccc2cc3cc(C(=O)N4CCCC(C)C4)oc3nc2c1 (configuration not stated) | inactive | 
35 | Cc1ccc(NC(=O)c2ccc3ncsc3c2)cc1S(=O)(=O)N(C)C | inconclusive: 14.1 µM [inhibitor, partial curve, poor fit] | 
36 | CCSc1nnc(NC(=O)CSc2sc3c(O)cc(=O)[nH]c3c2C#N)s1 | inconclusive: 14.1 µM [inhibitor, partial curve] | 
37 | CCOC(=O)C1=C(C)Nc2ccccc2N/C1=N\S(=O)(=O)c1cccc(Cl)c1 | inconclusive: 10 µM [inhibitor, partial curve] | 
38 | O=C(CSc1ccc2nnc(-c3ccc(Cl)cc3)n2n1)N1CCc2ccccc21 | active: 6.31 µM | 
39 | COc1cccc(CN2C(=O)C3(C(C#N)=C(N)OC4=C3C(=O)CCC4)c3ccccc32)c1 (configuration not stated) | inconclusive: 0.316 µM [inhibitor, partial curve, poor fit] | 
40 | Cc1ccc(N=C2NC(=O)/C(=C/C=C/c3ccco3)S2)cc1C | inconclusive: 20 µM [inhibitor, partial curve] | 
41 | CCOc1ccc(-n2c(COc3ccc(C)cc3)nnc2SCC(N)=O)cc1 | inactive | 
42 | CC(OC(=O)CNC(=O)c1ccc(Cl)c([N+](=O)[O-])c1)C(=O)NCc1ccco1 (configuration not stated) | inconclusive: 28.2 µM [inhibitor, single point] | 
43 | CCCCOC(=O)c1ccc(NC(=O)/C=C/c2cccs2)cc1 | inconclusive: 15.8 µM [inhibitor, partial curve] | 
44 | COc1ccc(-c2[nH]ncc2CN(C)Cc2cccnc2)c(OC)c1 | inactive | 
45 | CC12CCC(=O)N1C(C(=O)NCCN1C(=O)S/C(=C\c3ccc(F)cc3)C1=O)CS2 (configuration not stated) | inconclusive: 28.2 µM [inhibitor, single point] | 
46 | CCOC(=O)CC(=O)CSc1nnc(Cn2c(=O)sc3ccccc32)n1C | inactive | 

Row | Structure (SMILES) | Potency | activity change, negative = inhibition
47 | Cc1ccc(CNS(=O)(=O)CCNC(=O)c2ccccc2)cc1 | inconclusive: 35.5 µM [inhibitor, single point] | 
48 | O=C(CSc1nnc(CNc2ccccc2)o1)c1ccc2c(c1)OCCO2 | inconclusive: 10 µM [inhibitor, partial curve, poor fit] | 
49 | CC1C(=O)N2CCCc3cc(S(=O)(=O)NCc4ccc(F)cc4)cc1c32 (configuration not stated) | inconclusive: 39.8 µM [inhibitor, single point] | 
50 | O=c1[nH]c(=S)[nH]c(O)c1N=Nc1ccc(OC(F)F)cc1 | inactive | 
51 | N#C/C(=C/c1ccc2c(c1)OCO2)C(=O)NCCc1c[nH]c2ccccc12 | active: 0.282 µM | 
52 | Oc1ccc(-c2csc(Nc3ccccn3)n2)cc1O | active: 1.58 µM | 
53 | O=C(O)c1ccc2c(c1)C1C(Cl)C(Sc3ccccc3[N+](=O)[O-])CC1C(c1cccc([N+](=O)[O-])c1)N2 (configuration not stated) | active: 17.8 µM | 
54 | CCOC(=O)c1ccccc1NC(=O)COC(=O)C1CCN(S(=O)(=O)c2ccccc2C(=O)OC)CC1 | inconclusive: 39.8 µM [inhibitor, single point] | 
55 | Cc1ccc2nc(SCc3nc4ccccc4c(=O)[nH]3)[nH]c2c1 | inconclusive: 20 µM [inhibitor, partial curve] | 
56 | O=c1oc2ccccc2cc1-c1csc(NN=C2CCCC2)n1 | inconclusive: 7.94 µM [inhibitor, full curve, poor fit] | 
57 | CSCCNCc1c(C(=O)N2CCOCC2)nc2c(C)cccn12 | inactive | 
58 | Cc1cccc(C(=O)NC(C(=O)Nc2nc(-c3ccccn3)cs2)C(C)C)c1 (configuration not stated) | inconclusive: 6.31 µM [inhibitor, partial curve] | 
59 | CC1CCCN(S(=O)(=O)c2ccc(C(=O)Nc3nnc(-c4ccccn4)o3)cc2)C1 (configuration not stated) | inconclusive: 22.4 µM [inhibitor, single point] | 
60 | N#C/C(=C(/O)COC(=O)COc1ccc(Cl)cc1)c1nc2ccccc2[nH]1 | active: 11.2 µM | 
61 | Oc1ccc(N=Nc2ccc3c(c2)OCO3)c2ccccc12 | inactive | 
62 | CCOC(=O)CCNCC1COc2ccccc2O1 (configuration not stated) | inconclusive: 6.31 µM [inhibitor, partial curve, poor fit] | 
63 | CC1Cc2cc(/C(O)=C3/C(=O)C(=O)N(CCCn4ccnc4)C3c3ccco3)ccc2O1 (configuration not stated) | inactive | 
64 | O=C(NCCc1ccc(F)cc1)c1cc([N+](=O)[O-])ccc1N1CCOCC1 | inconclusive: 39.8 µM [inhibitor, single point] | 
65 | COCCNc1nc(-c2ccc(OC)cc2)c(-c2ccc(OC)cc2)s1 |  | inactive: -13.7% [at 11.4 µM]
66 | CC1(C)CC(=O)C(C=NCCN2CCN(CCCCS(=O)(=O)O)CC2)=C(O)C1 | inconclusive: 6.31 µM [inhibitor, single point] | 
67 | COc1ccc(/C=N/NC(=S)Nc2ccccc2)cc1COc1ccc(F)cc1 | inconclusive: 31.6 µM [inhibitor, single point] | 
